Results as given in PubChem BioAssay AID504832 (National Center for Advancing Translational Sciences (NCATS), 2011).
Among all 310,000 compounds or so, about 18,000 (5.8%) were called active. The inconclusive results got no clear call from the source; some entries with a clear call stand among them for comparison. Calls come from the whole dose curve; as a rule, active = well fitted inhibition curve with a large enough effect; inconclusive = small, poorly fitted or top-dose-only effect, or another doubt; inactive = no such curve, though single readings can be large or run the other way. No potency is given beside an inconclusive call; the fits are too rough.

assay: Primary qHTS for delayed death inhibitors of the malarial parasite plastid, 48 hour incubation; details: P. falciparum luciferase growth in erythrocytes; series mostly up to 28.7 µM; activity change, negative = inhibition: at the top concentration
Procedure, shortened: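 Luciferase-expressing P. falciparum in infected erythrocytes (2% hematocrit, 0.1% parasitemia final) in RPMI 1640/0.5% Albumax were exposed to compound for 48 hours at 37 C, 5% CO2; growth read as luminescence.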
% is set by controls: 0 for no effect and ±100 for the full control effect; potency is the fitted concentration of half-maximal effect; tags give direction and shape of the fitted curve.

SMILES | activity change, negative = inhibition | Potency
CSCC[C@H](NC(=O)N1CCn2c1nc1ccccc12)C(=O)NCc1ccc2c(c1)OCO2 | inactive: -12.8% | –
CC(C)CC(c1nnnn1Cc1ccccc1)N1CCN(C(=O)c2ccco2)CC1 (stereo unspecified) | – | inconclusive [inhibitor, single point]
CC1CC(C)CN(S(=O)(=O)N2CCC(C(=O)NCCc3ccccc3)CC2)C1 (stereo unspecified) | inactive: 14.5% | –
COc1cccc(OC)c1C(=O)NN1CCCCC1 | – | inconclusive [inhibitor, partial curve, poor fit]
O=C(c1cccc(F)c1F)N1CCCc2ccccc21 | – | inconclusive [inhibitor, full curve, poor fit]
CC(C)C[C@H]1CN=C(Nc2ccccc2)N1CC(C)C | – | inconclusive [inhibitor, single point]
CCCCCc1nc2c(c(=O)c3ccccc3n2C)c(=O)n1Cc1ccc(OC)cc1 | – | inconclusive [inhibitor, full curve]
COc1ccc(NC2=NCC(C)S2)cc1 (stereo unspecified) | inactive: 20.5% | –
COc1ccccc1N(C)S(=O)(=O)c1ccc(C(=O)OCC(N)=O)cc1 | inactive: -19.5% | –
CC(C)(C)OC(=O)N1CCC2(CC1)Oc1ccc(F)cc1C(=O)C21CC(c2cccnc2)=NO1 (stereo unspecified) | – | active: 10.4 µM
COc1ccc(CCNC(=O)CS(=O)Cc2nc(-c3ccccc3F)oc2C)cc1OC (stereo unspecified) | inactive: 5.61% | –
COc1ccccc1N1CCN(CC(=O)Nc2ccccc2C(=O)NCCc2ccccc2)CC1 | – | inconclusive [inhibitor, single point]
CCCCCCSc1ccc([C@H]2N[C@@](Cc3ccccc3)(C(=O)OC)[C@H]3C(=O)N(C)C(=O)[C@@H]23)cc1 | – | active: 0.294 µM
O=C(c1ccc(S(=O)(=O)N2CCCCCC2)cc1)N1CCN(c2ccccn2)CC1 | – | active: 13.1 µM
C#CCOC(=O)Nc1ccc(OCC(F)(F)F)nc1 | inactive: 34.6% | –
COC(=O)c1ccc(C23CC4(C2)[C@H](CN(C)[C@@H]4c2ccccc2)C3c2ccccc2)cc1 (stereo partly specified) | – | inconclusive [inhibitor, partial curve, poor fit]
CCCCn1c(N)c(N(CCOC)C(=O)c2ccc(S(=O)(=O)N3CCCCCC3)cc2)c(=O)[nH]c1=O | – | inconclusive [inhibitor, partial curve, poor fit]
CCOc1ccc(/C=N/NC2=NCCCCC2)cc1 | inactive: 30.2% | –
Oc1ccc(Nc2nc(-c3ccccc3O)nc3ccccc23)cc1 | inactive: -15.4% | –
Cc1ccc(-c2nnc(Nc3ccc(CC(N)=O)cc3)c3ccccc23)cc1S(=O)(=O)NCC1CCCO1 (stereo unspecified) | – | active: 0.828 µM
CCOC(=O)C1CCN(C(=O)CNC(=O)c2nn(-c3ccc(OC)cc3OC)c(=O)c3ccccc23)CC1 | – | inconclusive [inhibitor, partial curve]
Cc1cc(C)c(C#N)c(SCC(=O)c2cc(C)n(CCc3ccccc3)c2C)n1 | – | inconclusive [inhibitor, single point]
CCOc1ccc(CNC(=O)c2ccccc2NC(=O)C2=CSCCO2)cc1 | – | inconclusive [inhibitor, partial curve, poor fit]

SMILES | activity change, negative = inhibition | Potency
CCn1c(SCC(=O)Nc2cccc(NC(=O)c3ccco3)c2)nnc1-c1cccs1 | – | inconclusive [inhibitor, partial curve, poor fit]
CCNC(=S)N1CCN(S(=O)(=O)/C=C/c2ccccc2)CC1 | – | inconclusive [inhibitor, single point]
CCOc1ccc(CCNC(=O)c2ccc(N3CCCC3=O)cc2)cc1OCC | inactive: -13.5% | –
Cc1cc2cc(CN(CCN3CCOCC3)C(=O)Nc3ccccc3F)c(=O)[nH]c2cc1C | – | active: 9.28 µM
COc1ccc(S(=O)(=O)N2CCN(CCCOc3ccc(F)cc3)CC2)cc1OC | – | inconclusive [inhibitor, partial curve]
CCCn1c(=O)c(C(=O)NCc2ccc(OC)c(OC)c2)c(O)c2ccccc21 | – | inconclusive [inhibitor, single point]
CCc1nc2ccccc2c(C(=O)OCC(=O)Nc2cccc(S(=O)(=O)NC3=NCCCCC3)c2)c1C | – | inconclusive [inhibitor, single point]
O=C1CC(=O)N(Cc2ccccc2)C(=S)N1 | inactive: 17.6% | –
Cc1ccccc1NC(=O)Cc1nc(-c2c[nH]c(C(=O)N3CCCC3)c2)cs1 | – | active: 9.28 µM
CCn1c(NCc2cccc(OC)c2OC)nc2ccccc21 | – | inconclusive [inhibitor, single point]
Cc1cc(C(=O)Nc2ccc(F)cc2C)n(-c2ccccc2)n1 | inactive: -9.46% | –
CC(=O)C1=C(C)N(c2ccccc2)C(=O)C1(NS(=O)(=O)c1ccc(N)cc1)C(F)(F)F (stereo unspecified) | – | inconclusive [inhibitor]
O=C(C1=C(O)C(=O)N(CCN2CCOCC2)C1c1cccnc1)c1cc2ccccc2o1 (stereo unspecified) | inactive: 56.8% | –
Cc1ccc(C)c(NC(=O)CSc2nnc(CCCCCNC(=O)OC(C)(C)C)o2)c1 | – | inconclusive [inhibitor, single point]
O=C1CSC(c2ccccc2O)N1Cc1ccccc1 (stereo unspecified) | – | inconclusive [inhibitor, single point]
CCN(CC)C(=O)CN(c1ccc(C)cc1)S(=O)(=O)c1ccc(SC)cc1 | – | inconclusive [inhibitor, single point]
CCOC(=O)N1CCN(C(=O)COc2ccccc2OC)CC1 | – | active: 2.33 µM
Cc1ccc2nsnc2c1N | inactive: 3.6% | –
Cc1cccc(NC(=O)N2CCCC2C(=O)Nc2ccccc2)c1 (stereo unspecified) | – | inconclusive [inhibitor, full curve, poor fit]
Cc1ccc(OCC(=O)Nc2cc(NC(=O)COc3ccc(C)c(C)c3)cc(C(=O)O)c2)cc1C | inactive: 31.8% | –
CCn1cc(C(=O)NCCCN2CCCC(C)C2)c(=O)c2cc(S(=O)(=O)N3CCOCC3)ccc21 (stereo unspecified) | – | inconclusive [inhibitor, single point]
Cc1ccc(CNC(=O)C2CCCN(c3ncnc4c3nc3n4CCCCC3)C2)cc1 (stereo unspecified) | inactive: -2.48% | –
CCN1CC=C2C(C#N)=C(N)C(C#N)(C#N)[C@H](c3ccoc3)[C@H]2C1 | – | inconclusive [inhibitor, full curve]
